Test results from the supplement of paper PMC3334620.
Whole data set: some 33,000 sequences, median “E-score (-0.5 to 0.5)” near -0.032, cut for the highest 2% near 0.36. This is one part of the list.

biological target: T1, Sko1 (UniProt Q02100); test: PBM E-score (8-mer binding enrichment) (E-score (-0.5 to 0.5)); higher = stronger / more preferred TF binding; most listed sequences are background and not binding sites; conditions: protein concentration: 200 nM; construct: GST-full length
T1 sequence: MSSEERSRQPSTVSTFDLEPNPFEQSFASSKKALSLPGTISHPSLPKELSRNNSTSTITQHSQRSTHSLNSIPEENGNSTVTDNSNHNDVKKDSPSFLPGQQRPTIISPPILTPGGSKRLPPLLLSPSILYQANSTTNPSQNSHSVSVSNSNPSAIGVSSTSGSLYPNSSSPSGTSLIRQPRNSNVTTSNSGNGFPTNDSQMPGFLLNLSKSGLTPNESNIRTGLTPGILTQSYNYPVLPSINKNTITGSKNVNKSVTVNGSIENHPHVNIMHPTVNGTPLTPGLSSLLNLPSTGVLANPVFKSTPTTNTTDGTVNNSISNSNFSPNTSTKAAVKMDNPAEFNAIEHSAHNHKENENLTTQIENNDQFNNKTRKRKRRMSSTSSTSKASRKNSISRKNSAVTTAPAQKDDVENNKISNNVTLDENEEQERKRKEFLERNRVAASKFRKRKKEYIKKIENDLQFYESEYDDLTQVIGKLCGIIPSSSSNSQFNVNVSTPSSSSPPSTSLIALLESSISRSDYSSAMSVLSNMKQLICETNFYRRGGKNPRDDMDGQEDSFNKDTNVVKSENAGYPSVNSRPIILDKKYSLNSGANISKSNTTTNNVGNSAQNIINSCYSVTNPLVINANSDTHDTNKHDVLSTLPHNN
How it was run: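 Masliner-normalised scans of fluorescent anti-GST signal were the basis for scoring. That signal came from GST-tagged yeast transcription factors applied at about 100-200 nM to double-stranded universal all-10-mer Agilent arrays on fresh or once-stripped slides. Each ungapped eight-base word, pooled with its reverse complement, received an E-score from the Universal PBM Analysis Suite.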

Sequence | PBM E-score
CGGGCAAA | -0.115
AGGCTTTA | 0.0221
ACACGGAA | 0.0164
GTGAGCCA | -0.0673
ATAAATAA | 0.31
CAATGGAA | 0.0512
ATAAGTAA | 0.179
CCTCTTCA | -0.255
CCGTGAAA | 0.0717
CTTTACTA | 0.088
CGGGATCC | -0.0633
ACGGTTTG | -0.104
AACTTGCA | 0.0361
GCCCCTGA | -0.18
AGCGTGGG | -0.301
AATTAGCC | -0.00886
AGATTATG | 0.145
ACATCATA | 0.425
CCATCCCC | -0.148
CACATGCG | 0.15
CTCTTAGA | -0.157
TCGTCACA | 0.379

Sequence | PBM E-score
AGAAAAAC | 0.0791
ATTACGAG | 0.36
CCGGTCCC | -0.461
GTAACGAC | 0.0668
TACCAAAA | 0.0737
CATTCTTC | 0.0192
AGATACGA | 0.208
ATGGGCTG | -0.174
CACTAGCA | -0.158
TCGGCCAA | -0.108
CGAATGGC | -0.0402
CAGGGACG | -0.0243
AGTGGCGG | -0.126
CGAACCGA | 0.0415
TAGCTCCA | -0.0202
TCGTGCCA | -0.0756
CAGCCCAA | -0.0808
CCCACTGC | -0.115
GGCCACGA | -0.274
CCACTTTC | 0.0359
AATCACCA | 0.118
ACAGGCCC | -0.371

Sequence | PBM E-score
AACTAAAT | -0.0609
GTGGAGGA | -0.156
CTGACTGC | -0.03
CTCAGTCA | -0.121
AGCTGGTA | -0.226
GGAAATTA | 0.187
GACACGCC | 0.0381
TACTCAGA | 0.11
ATTAGAGC | 0.164
ACATCGAT | 0.0796
ACTAAGGA | -0.138
CGGATAGC | -0.164
TCGCCCGA | -0.231
GATTTGAA | 0.0915
CCGTCAAA | -0.072
ACAGTCTG | -0.171
GAGAGCCC | -0.278
GAGCCAGA | -0.0787
AACTCGCT | -0.0545
TACGATAA | 0.274
CAAATTTC | 0.126
GACCACTC | -0.208

Sequence | PBM E-score
AGCTCGCA | -0.0497
AGCATCAT | 0.263
ACATACCG | -0.0469
CTCGCGAA | -0.0392
AAAGGAAG | -0.122
GCCTGATA | -0.0647
GTACCTCA | 0.0355
CTAGGCAC | -0.17
CCGAATTC | -0.0237
GGTAATTA | 0.239
GACATGAC | 0.272
CGACGGCA | -0.211
AAGCTCTA | 0.0756
ATCACGGG | -0.112
GGAAGTAA | -0.0611
CGCTGGAA | -0.184
CATTCCCC | -0.207
CGGTTTTA | 0.00908
ACCATGTC | 0.104
GCGTGACA | 0.147
CTGCTATA | -0.0843
CCTAAGCA | -0.0185

Sequence | PBM E-score
GCGCTGCC | -0.268
GAAATGCA | -0.103
CAATCGAG | -0.197
CAAAAGGG | -0.171
TCTGCTCA | -0.106
CGCCTTAC | 0.175
GAAAAGAC | 0.132
GACAAATC | 0.154
CTAAGACA | 0.0545
GAAAAAAA | 0.232
CCGGTTTC | -0.0188
AGGCCCTG | -0.281
CGCGCTGA | -0.0118
AGCAGTCC | -0.301
GACATTCA | 0.0556
CCGTATGA | 0.135
GTACACGA | 0.207
TTACTGAA | 0.144
ATAGATAC | 0.0984
GTCATAAC | 0.285
CCGGTTTA | -0.208
